B1: Caulobacter ParB omega fusion; a variant is named by its letters at X, in order, B8GW30 (parent)
chain: MESVVVGEPGMSEGRRGLGRGLSALLGEVDAAPAQAPGEQLGGSREAPIEILQRNPDQPRRTFREEDLEDLSNSIREKGVLQPILVRPSPDTAGEYQIVAGERAWRAAQRAGLKTVPIMVRELDDLAVLEIGIIENVQRADLNVLEEALSYKVLMEKFERTQENIAQTIGKSXSHVANXMRLLXLPDEVQSYLVSGELTAXHARAIAAAADPVALAKQIIEGGLSVRETEALARKAPNLSAGKSKGGRPPRVKDTDTQALESDLSSVLGLDVSIDHRGSTGTLTITYATLEQLDDLCNRLTRGI

Whole data set: some 81,000 sequences, median “one-hybrid fitness for binding NBS DNA” near -0.1, cut for the highest 2% near 0.36. This is one part of the list.

This experiment covers variants of B1. As to the kind of experiment: one-hybrid fitness for binding NBS DNA (the Noc-binding site; scaled: cognate 1, non-cognate 0); higher = stronger binding. To be noted: with NBS DNA site. In short, it runs like this:
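The reporter was HIS3, with the binding site 19 bp from the promoter, in E. coli USO used for bacterial one-hybrid selection of Caulobacter ParB libraries with four specificity codons randomised. Growth was on M9 lacking histidine, with 0.1 mM IPTG and 5 mM 3-AT, for 48 hours at 37°C. Illumina sequencing covered plasmids before and after selection; three replicate libraries were pooled and variants with under 10 reads dropped. A fitness score is the log change in variant-to-wild-type read ratio, rescaled to the cognate and non-cognate references.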
Turning to QPIE, the “one-hybrid fitness for binding NBS DNA” value is at most 0.2.

Turning to SWVG, the “one-hybrid fitness for binding NBS DNA” value is at most 0.2. To LQDT belongs at most 0.2; to QSID, at most 0.2. On to MRLI, for which the “one-hybrid fitness for binding NBS DNA” value was at most 0.2. To PCTH belongs at most 0.2; to NSHC, at most 0.2; to ITPG, at most 0.2.

With HTAR, the “one-hybrid fitness for binding NBS DNA” value is at most 0.2. To VLYG belongs at most 0.2; to QNPW, at most 0.2. As to ATWW, the “one-hybrid fitness for binding NBS DNA” value was at most 0.2. For the variant QGEL, the “one-hybrid fitness for binding NBS DNA” value is at most 0.2. Take DPST: the “one-hybrid fitness for binding NBS DNA” value is at most 0.2.

As for RHSD, the “one-hybrid fitness for binding NBS DNA” value is at most 0.2. For HCNC, the “one-hybrid fitness for binding NBS DNA” value was at most 0.2. To HGAT belongs at most 0.2; to LART, at most 0.2. Take VWTD: the “one-hybrid fitness for binding NBS DNA” value was at most 0.2. In the case of NLIL, the “one-hybrid fitness for binding NBS DNA” value is at most 0.2. As for CMRV, the “one-hybrid fitness for binding NBS DNA” value was at most 0.2. Take AKTD: the “one-hybrid fitness for binding NBS DNA” value was at most 0.2.

For the variant CWKV, the “one-hybrid fitness for binding NBS DNA” value is at most 0.2.

For the variant SIRY, the “one-hybrid fitness for binding NBS DNA” value is at most 0.2. With ACRD, the “one-hybrid fitness for binding NBS DNA” value is at most 0.2. To QKLT belongs 0.464; to SEPW, at most 0.2. GLKR: the “one-hybrid fitness for binding NBS DNA” value is at most 0.2. For the variant RFIG, the “one-hybrid fitness for binding NBS DNA” value is at most 0.2. For WSGS, the “one-hybrid fitness for binding NBS DNA” value was at most 0.2. For HTRE, the “one-hybrid fitness for binding NBS DNA” value is at most 0.2. Under RRYY stands 0.349; under WRKT, at most 0.2.

In the case of ANHF, the “one-hybrid fitness for binding NBS DNA” value is at most 0.2.

In the case of VVNS, the “one-hybrid fitness for binding NBS DNA” value was at most 0.2.

On to RSVE, for which the “one-hybrid fitness for binding NBS DNA” value was at most 0.2.

For the variant RQRF, the “one-hybrid fitness for binding NBS DNA” value is at most 0.2.

Consider VTKC, for which the “one-hybrid fitness for binding NBS DNA” value was at most 0.2.

As for PKTG, the “one-hybrid fitness for binding NBS DNA” value is at most 0.2. To CMCY belongs at most 0.2; to VEHD, at most 0.2. Under RLKS stands 0.554; under AFGT, at most 0.2; under YCLL, at most 0.2. With LRPN, the “one-hybrid fitness for binding NBS DNA” value is at most 0.2.

For WEGR, the “one-hybrid fitness for binding NBS DNA” value was at most 0.2. With VLDL, the “one-hybrid fitness for binding NBS DNA” value was at most 0.2. For SKKA, the “one-hybrid fitness for binding NBS DNA” value is at most 0.2.

Turning to PMII, the “one-hybrid fitness for binding NBS DNA” value was at most 0.2. To TFQR belongs at most 0.2; to MNVS, at most 0.2; to HDLW, at most 0.2.

As to TSSM, the “one-hybrid fitness for binding NBS DNA” value is at most 0.2. Under PAVN stands at most 0.2; under SKHC, at most 0.2. In the case of RSEQ, the “one-hybrid fitness for binding NBS DNA” value is at most 0.2. As for GYKF, the “one-hybrid fitness for binding NBS DNA” value is at most 0.2. Under NIGI stands at most 0.2.

For the variant KMIR, the “one-hybrid fitness for binding NBS DNA” value is at most 0.2. Take AAAC: the “one-hybrid fitness for binding NBS DNA” value is at most 0.2. In the case of DNFS, the “one-hybrid fitness for binding NBS DNA” value is at most 0.2.

Regarding RLSD, the “one-hybrid fitness for binding NBS DNA” value was at most 0.2.

On to HHIA, for which the “one-hybrid fitness for binding NBS DNA” value was at most 0.2. Under PRRD stands at most 0.2; under TVCM, at most 0.2; under KNMC, at most 0.2. For RFMV, the “one-hybrid fitness for binding NBS DNA” value is at most 0.2. To FPIG belongs at most 0.2; to EKVR, at most 0.2. On to QAAS, for which the “one-hybrid fitness for binding NBS DNA” value was 0.304. In the case of SFHG, the “one-hybrid fitness for binding NBS DNA” value was at most 0.2.

IGNF: the “one-hybrid fitness for binding NBS DNA” value is at most 0.2. To ILDY belongs at most 0.2; to NRFG, at most 0.2. PDCY: the “one-hybrid fitness for binding NBS DNA” value was at most 0.2.

For the variant QWCR, the “one-hybrid fitness for binding NBS DNA” value was 0.208. To AACF belongs at most 0.2; to QQRE, 0.332; to TLQC, at most 0.2.

Take VFPI: the “one-hybrid fitness for binding NBS DNA” value is at most 0.2. Take PATR: the “one-hybrid fitness for binding NBS DNA” value is at most 0.2. To AMAL belongs at most 0.2. Under RTSI stands at most 0.2; under KRHV, at most 0.2; under TIHL, at most 0.2. To FAPF belongs at most 0.2. Turning to NNVR, the “one-hybrid fitness for binding NBS DNA” value was at most 0.2. To SSVQ belongs at most 0.2; to DQDV, at most 0.2; to DTNN, at most 0.2. Under WAAC stands at most 0.2; under QSQM, at most 0.2. To NKVV belongs at most 0.2; to FQLM, at most 0.2. Consider NGMT, for which the “one-hybrid fitness for binding NBS DNA” value is at most 0.2. To QPKC belongs at most 0.2.

With TMVV, the “one-hybrid fitness for binding NBS DNA” value is at most 0.2. For the variant NAVL, the “one-hybrid fitness for binding NBS DNA” value was at most 0.2. To CITK belongs at most 0.2. Under PWTK stands at most 0.2; under EFLG, at most 0.2; under QTQM, 0.22.

With VGQS, the “one-hybrid fitness for binding NBS DNA” value is at most 0.2. Take LGCR: the “one-hybrid fitness for binding NBS DNA” value is at most 0.2. On to SWLK, for which the “one-hybrid fitness for binding NBS DNA” value was at most 0.2. Consider QLHH, for which the “one-hybrid fitness for binding NBS DNA” value was at most 0.2. As for KIPM, the “one-hybrid fitness for binding NBS DNA” value was at most 0.2. On to KTNC, for which the “one-hybrid fitness for binding NBS DNA” value was at most 0.2. To TYMG belongs at most 0.2. Under RVML stands at most 0.2; under NAPG, at most 0.2; under DIWC, at most 0.2. In the case of SPKD, the “one-hybrid fitness for binding NBS DNA” value is at most 0.2. In the case of PKDL, the “one-hybrid fitness for binding NBS DNA” value was at most 0.2. Under QRYQ stands 0.35. For the variant NMNT, the “one-hybrid fitness for binding NBS DNA” value was at most 0.2. Under MSER stands at most 0.2. Regarding PHVT, the “one-hybrid fitness for binding NBS DNA” value was at most 0.2. With GADS, the “one-hybrid fitness for binding NBS DNA” value is at most 0.2. Under YELE stands at most 0.2.

Turning to TPYS, the “one-hybrid fitness for binding NBS DNA” value was at most 0.2. Under EGQW stands at most 0.2. Take WNVY: the “one-hybrid fitness for binding NBS DNA” value was at most 0.2. LVER: the “one-hybrid fitness for binding NBS DNA” value was at most 0.2. Under KLVT stands at most 0.2; under ASDT, at most 0.2; under PIRD, at most 0.2. In the case of EMIY, the “one-hybrid fitness for binding NBS DNA” value is at most 0.2. To TLNL belongs at most 0.2. To HALI belongs at most 0.2; to LKKE, at most 0.2.

VTDV: the “one-hybrid fitness for binding NBS DNA” value is at most 0.2.

As for PTRT, the “one-hybrid fitness for binding NBS DNA” value was at most 0.2. To YPLW belongs at most 0.2; to SFWS, at most 0.2; to TPMG, at most 0.2.

For SKLW, the “one-hybrid fitness for binding NBS DNA” value is at most 0.2. To CAER belongs at most 0.2; to SQDG, at most 0.2. Under QSMM stands at most 0.2; under DYTG, at most 0.2.

On to KKNV, for which the “one-hybrid fitness for binding NBS DNA” value is at most 0.2. For HIGS, the “one-hybrid fitness for binding NBS DNA” value is at most 0.2.

As to PCQD, the “one-hybrid fitness for binding NBS DNA” value was at most 0.2. To STSI belongs at most 0.2; to FRSH, at most 0.2. Consider IPED, for which the “one-hybrid fitness for binding NBS DNA” value is at most 0.2. Consider KCIR, for which the “one-hybrid fitness for binding NBS DNA” value is at most 0.2.

For the variant PVLL, the “one-hybrid fitness for binding NBS DNA” value is at most 0.2. Regarding SWSW, the “one-hybrid fitness for binding NBS DNA” value is at most 0.2. To RVQQ belongs at most 0.2; to KRIM, at most 0.2. To WFVR belongs at most 0.2.

For the origin of these results see a collection of fitness landscapes (doi:10.1016/j.celrep.2020.107928).
